Test results from PubChem BioAssay AID1460 (National Center for Advancing Translational Sciences (NCATS), 2008).
In all, about 270,000 compounds went through this assay and about 5,800 (2.1%) were called active. Inconclusive means that the source gave no clear call. Such entries were picked first, then a sample of the others. Calls follow the shape of the dose curve; as a rule, active = well fitted inhibition curve with a large enough effect; inconclusive = small, poorly fitted or top-dose-only effect; inactive = flat fitted curve, though single readings scatter. Where the call is inconclusive, the potency comes from a doubtful curve fit.
% is scaled to controls: 0 for no effect and ±100 for the full control effect; potency is read from the fitted curve at half-maximal effect; tags tell the direction and shape of the fitted curve.
Also: nearly all actives have a fitted effect of over 55% in size.

Each compound was assayed against Microtubule-associated protein tau (Homo sapiens) (UniProt P10636) (assay: qHTS for Inhibitors of Tau Fibril Formation, Thioflavin T Binding). Conditions: recombinant tau K18 P301L (four-repeat tau fragment), heparin-induced fibrillization, ThT fluorescence; series mostly up to 57.4 µM; activity, negative = inhibition: at the top concentration.
Sequence of UniProt P10636 (P10636 whole entry, looked up, the tested form may be a part): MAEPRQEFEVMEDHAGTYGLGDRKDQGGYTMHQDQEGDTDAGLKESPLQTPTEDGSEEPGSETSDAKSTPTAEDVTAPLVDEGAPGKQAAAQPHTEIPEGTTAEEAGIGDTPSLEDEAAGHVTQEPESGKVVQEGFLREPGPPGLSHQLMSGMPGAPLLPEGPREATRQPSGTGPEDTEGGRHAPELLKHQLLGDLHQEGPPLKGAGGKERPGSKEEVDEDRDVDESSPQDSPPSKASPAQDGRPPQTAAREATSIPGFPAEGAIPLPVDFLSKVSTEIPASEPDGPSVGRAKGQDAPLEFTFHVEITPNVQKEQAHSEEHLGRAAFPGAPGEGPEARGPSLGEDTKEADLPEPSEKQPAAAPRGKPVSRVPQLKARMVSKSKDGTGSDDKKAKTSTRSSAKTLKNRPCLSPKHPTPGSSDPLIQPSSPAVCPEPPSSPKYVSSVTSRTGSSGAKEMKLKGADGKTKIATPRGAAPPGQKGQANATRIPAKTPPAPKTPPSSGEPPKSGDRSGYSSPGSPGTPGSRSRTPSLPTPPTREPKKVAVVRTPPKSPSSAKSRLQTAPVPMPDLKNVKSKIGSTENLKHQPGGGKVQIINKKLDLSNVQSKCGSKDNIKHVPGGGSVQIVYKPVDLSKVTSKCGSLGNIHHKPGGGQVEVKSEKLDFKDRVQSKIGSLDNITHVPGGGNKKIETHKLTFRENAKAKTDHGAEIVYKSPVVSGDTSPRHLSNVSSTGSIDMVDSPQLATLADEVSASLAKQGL
In short: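 Heparin-induced (20 uM) aggregation of recombinant human K18 P301L tau, 15 uM unlabeled with 0.24 uM labeled, pH 7 acetate buffer, 6 hr at 37 C with compound. Fibrils quantified by 30 uM ThT fluorescence after 1 hr ambient incubation.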
For `Cc1ccc(C)n1-c1sccc1C(=O)O`, the Potency was active: 31.6 µM.
In the case of `Clc1ccc(-c2csc(N/N=C/c3ccc4c(c3)OCO4)n2)cc1`, the Potency is reported as active: 8.91 µM.
`COc1ccc(-n2[nH]c(C)cc2=O)cc1` was tested, and the Potency was inconclusive: 6.31 µM [inhibitor, partial curve].
`CCCn1c(-c2ccc(F)cc2)n[nH]c1=S` was tested, and the “activity, negative = inhibition” value was inactive: -7.7%.
In the case of `CCCC(=O)Nc1c2c(nn1-c1ccc(C)cc1C)CSC2`, the “activity, negative = inhibition” value is reported as inactive: -12.4%.
`O=[N+]([O-])c1ccccc1-c1ccc(C(=S)N2CCCCC2)o1` was tested, and the Potency was inconclusive: 20 µM [inhibitor, partial curve].
In the case of `O=C(Nc1cnn(Cc2ccc(F)cc2)c1)c1noc2c1CCCC2`, the Potency is reported as inconclusive: 20 µM [inhibitor, partial curve].
With `Nc1cc(=O)nc(SCC(=O)Nc2ccc(F)cc2)n1-c1ccc(Cl)cc1` the “activity, negative = inhibition” value was inactive: -8.16%.
In the case of `COCCn1nnnc1CN(CCc1ccccc1)Cc1cc2ccc(C)cc2[nH]c1=O`, the Potency is reported as inconclusive: 3.55 µM [inhibitor, single point].
For `CCOc1cc(NC(=S)Nc2ccccc2)c(OCC)cc1NC(=O)c1ccc(OC)cc1`, the Potency was inconclusive: 15.8 µM [inhibitor, partial curve].
In the case of `O=C1N/C(=C/c2ccc(N3CCOCC3)o2)C(=O)N1c1cccc(Cl)c1`, the Potency is reported as inconclusive: 3.16 µM [inhibitor, partial curve].
In the case of `Cc1occc1C(=O)N/N=C/c1sc(N2CCOCC2)nc1-c1ccccc1`, the Potency is reported as inconclusive: 2 µM [inhibitor, full curve].
In the case of `CCNc1nc(NC(C)C)nc(N(C#N)CCOc2ccccc2)n1`, the “activity, negative = inhibition” value is reported as inactive: -6.74%.
With `O=C(O)/C=C\C(=O)Nc1cccc(NC(=O)c2ccccc2)c1` the Potency was inconclusive: 10 µM [inhibitor, partial curve].
For `Cc1ccc2nc(N(Cc3cccnc3)C(=O)C3CCCCC3)sc2c1`, the Potency was inconclusive: 39.8 µM [inhibitor, single point].
For `CC(C)(C)c1nc(NC(=O)Nc2ccccc2)sc1Br`, the “activity, negative = inhibition” value was inactive: -17.4%.
With `COc1ccc(CCNC(=O)Cn2ncc3c(C)n(Cc4ccccc4F)c(C)c3c2=O)cc1OC` the “activity, negative = inhibition” value was inactive: 3.71%.
With `Cc1ccc(C)c(-c2csc(-c3c(N)c(C(=O)c4ccc5c(c4)OCO5)n4ccccc34)n2)c1` the “activity, negative = inhibition” value was inactive: -14.2%.
In the case of `Cc1ccc2cc(CCNC(=O)c3cccc([N+](=O)[O-])c3)c(=O)[nH]c2c1`, the Potency is reported as inconclusive: 31.6 µM [inhibitor, single point].
`COc1ccccc1C(=O)Nc1ccc(C2=NNC(=O)CC2C)cc1` (stereo not given) was tested, and the Potency was inconclusive: 28.2 µM [inhibitor, single point].
`CN1CCc2c(c3c(n2C)CCN(C)C3c2ccc(F)cc2)C1c1ccc(F)cc1` (stereo not given) was tested, and the Potency was inconclusive: 39.8 µM [inhibitor, single point].
`Cc1ccc2c(c1)c(=O)c(C(=O)c1ccncc1)cn2CC(=O)Nc1c(C)cccc1C` was tested, and the “activity, negative = inhibition” value was inactive: -9.83%.
In the case of `CCC(C)NCCOc1ccccc1C` (stereo not given), the “activity, negative = inhibition” value is reported as inactive: 13.2%.
For `Cc1cc(=O)n(CC(=O)NCCC(C)C)c2c1c(C)nn2C`, the “activity, negative = inhibition” value was inactive: 0.445%.
For `CC(NC(=O)CN(C)S(=O)(=O)c1ccc2c(c1)c(=O)n(C)c(=O)n2C)c1ccccc1` (stereo not given), the “activity, negative = inhibition” value was inactive: 7.5%.
`Cc1cc2c(=O)c(C(=O)c3ccncc3)cn(CC(=O)Nc3cccc(C)c3C)c2cc1C` was tested, and the Potency was inconclusive: 8.91 µM [inhibitor, partial curve].
In the case of `Cc1cc(C(=O)NCCN2C(=O)S/C(=C\c3cccs3)C2=O)ccc1[N+](=O)[O-]`, the Potency is reported as inconclusive: 5.01 µM [inhibitor, full curve].
In the case of `COc1ccccc1C1Nc2cccc3cccc(c23)N1`, the Potency is reported as active: 22.4 µM.
`O=C(NC1CCCCC1)C(c1ccncc1)N(Cc1ccc2c(c1)OCO2)C(=O)C(F)(F)F` (stereo not given) was tested, and the Potency was inconclusive: 28.2 µM [inhibitor, partial curve].
In the case of `CCCCCCn1nc(C(=O)Nc2nc3c(s2)CCCC3)c2ccccc2c1=O`, the Potency is reported as inconclusive: 14.1 µM [inhibitor, partial curve, poor fit].
In the case of `COC(=O)[C@@]1(Cc2ccccc2)[C@H]2c3cc(C(=O)N(C)C)n(Cc4ccc(S(C)(=O)=O)cc4)c3C[C@H]2CN1C(=O)c1ccccc1`, the Potency is reported as inconclusive: 22.4 µM [inhibitor, single point].
For `Cc1ccc(C)c(S(=O)(=O)N(C(=O)c2ccncc2)c2ccc(OC(=O)c3ccncc3)cc2)c1`, the Potency was inconclusive: 17.8 µM [inhibitor, partial curve].
With `CC(=O)N(/N=C1\Sc2ccccc2C1=O)c1ccccc1C` the Potency was active: 11.2 µM.
With `O=[N+]([O-])c1ccccc1-c1cc(-c2cc(Cl)ccc2O)n[nH]1` the Potency was inconclusive: 22.4 µM [inhibitor, partial curve].
In the case of `O=C(NC(=S)N1CCN(c2nc(-c3ccccc3)cs2)CC1)c1cncc(Br)c1`, the Potency is reported as inconclusive: 17.8 µM [inhibitor, partial curve].
`Clc1ccc(CSc2ccc(-c3ccco3)nn2)cc1` was tested, and the “activity, negative = inhibition” value was inactive: -17.8%.
With `CC(C)OC(=O)c1cc2c(ccn2C)n1CC(=O)N1CCC(Cc2ccccc2)CC1` the Potency was inconclusive: 20 µM [inhibitor, partial curve].
With `COc1ccc(CNc2nc(-c3ccccc3)nn2C(=O)c2ccc([N+](=O)[O-])cc2)cc1` the Potency was inconclusive: 10 µM [inhibitor, partial curve, poor fit].
For `O=C(Nc1ccc2c(c1)OCO2)C1COc2ccccc2O1` (stereo not given), the Potency was inconclusive: 14.1 µM [inhibitor, partial curve].
In the case of `CCCC1OC23CCCCC2C(C#N)(C(=N)O3)C1(C#N)C#N` (stereo not given), the Potency is reported as inconclusive: 28.2 µM [inhibitor, single point].
In the case of `CNC(=S)N1CCn2cccc2C1c1ccc(F)cc1` (stereo not given), the Potency is reported as inconclusive: 17.8 µM [inhibitor, single point].
`C/C(CCN1CCc2nc(-c3ccccc3)c(-c3ccccc3)cc2C1)=N\O[C@@H](C)CN1CCCCc2nc(C)c(C)cc21` was tested, and the activity, negative = inhibition was inactive: -8.08% [at 11.5 µM].
With `CCCN1C(=O)C(O)(C2CC(=O)CC(C)(C)O2)c2ccccc21` (stereo not given) the “activity, negative = inhibition” value was inactive: -5.36%.
With `Cc1c(Cl)cccc1NC(=O)c1ccc2nc(C(C)C)oc2c1` the Potency was inconclusive: 39.8 µM [inhibitor, single point].
For `O=C(Cn1nc(C(=O)O)c2ccccc2c1=O)Nc1ccc2c(c1)C(=O)c1ccccc1C2=O`, the Potency was inconclusive: 3.16 µM [inhibitor, full curve].
